The assay deals with late blight pathogens of potato. The assay is classed as in vivo. Conditions: standard benziothiazolinone.

Each structure is given as a SMILES string. Like-named read-outs stand apart in the source and are kept apart here.

For the compound `CC(C)OC(=O)N[C@H](C(=O)N[C@H](C)c1nc2ccc(F)cc2s1)C(C)C` [Benthiavalicarb-isopropyl], the “ATI (actual toxicity index)” value (Table 13) stood at 92.422.

Regarding `O=c1[nH]sc2ccccc12` [Benziothiazolinone], the “ATI (actual toxicity index)” value reads like this: (Table 11) 100.00; (Table 12) 100.00; (Table 13) 100.000; (Table 14) 100.00; (Table 15) 100.00.

For `O=C(Nc1ccccc1-c1ccc(Cl)cc1)c1cccnc1Cl` [Boscalid], where the note is “Table 12”, the “ATI (actual toxicity index)” value stood at 88.43.

In the case of `CSC1=N[C@@](C)(c2ccccc2)C(=O)N1Nc1ccccc1` [Fenamidone], under “Table 15”, the “ATI (actual toxicity index)” value is reported as 93.01.

As for `CCC(C)(NC(=O)c1cc(Cl)c(C)c(Cl)c1)C(=O)CCl` (stereo not shown) [Zoxamide], where the note is “Table 14”, the “ATI (actual toxicity index)” value came to 94.85.

`COC(=O)N(OC)c1ccccc1COc1ccn(-c2ccc(Cl)cc2)n1` [pyraclostrobin]: the “ATI (actual toxicity index)” value (Table 11) was 130.49.

These data come from patent publication US10561143B2, “Fungicidal composition having synergistic effect” (JIANGSU HUIFENG AGROCHEMICAL CO., LTD., priority 2013, dated 2020).
